Laboratory results from PMC4336329 (PLoS ONE, 2015).
In all, about 310,000 compounds went through this assay and about 14,000 (4.5%) showed an effect of 50% or more. The effect is printed as a negative number. The list shows a part of the results.

molecular target: human ether-à-go-go-related gene (hERG) potassium channel (human, UniProt Q12809); experiment: primary screen, population patch clamp on CHO cells stably expressing hERG
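Further: peak tail current of the secondary pulse compared with the same well before compound.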

human ether-à-go-go-related gene (hERG) potassium channel, sequence (Q12809 whole entry, looked up): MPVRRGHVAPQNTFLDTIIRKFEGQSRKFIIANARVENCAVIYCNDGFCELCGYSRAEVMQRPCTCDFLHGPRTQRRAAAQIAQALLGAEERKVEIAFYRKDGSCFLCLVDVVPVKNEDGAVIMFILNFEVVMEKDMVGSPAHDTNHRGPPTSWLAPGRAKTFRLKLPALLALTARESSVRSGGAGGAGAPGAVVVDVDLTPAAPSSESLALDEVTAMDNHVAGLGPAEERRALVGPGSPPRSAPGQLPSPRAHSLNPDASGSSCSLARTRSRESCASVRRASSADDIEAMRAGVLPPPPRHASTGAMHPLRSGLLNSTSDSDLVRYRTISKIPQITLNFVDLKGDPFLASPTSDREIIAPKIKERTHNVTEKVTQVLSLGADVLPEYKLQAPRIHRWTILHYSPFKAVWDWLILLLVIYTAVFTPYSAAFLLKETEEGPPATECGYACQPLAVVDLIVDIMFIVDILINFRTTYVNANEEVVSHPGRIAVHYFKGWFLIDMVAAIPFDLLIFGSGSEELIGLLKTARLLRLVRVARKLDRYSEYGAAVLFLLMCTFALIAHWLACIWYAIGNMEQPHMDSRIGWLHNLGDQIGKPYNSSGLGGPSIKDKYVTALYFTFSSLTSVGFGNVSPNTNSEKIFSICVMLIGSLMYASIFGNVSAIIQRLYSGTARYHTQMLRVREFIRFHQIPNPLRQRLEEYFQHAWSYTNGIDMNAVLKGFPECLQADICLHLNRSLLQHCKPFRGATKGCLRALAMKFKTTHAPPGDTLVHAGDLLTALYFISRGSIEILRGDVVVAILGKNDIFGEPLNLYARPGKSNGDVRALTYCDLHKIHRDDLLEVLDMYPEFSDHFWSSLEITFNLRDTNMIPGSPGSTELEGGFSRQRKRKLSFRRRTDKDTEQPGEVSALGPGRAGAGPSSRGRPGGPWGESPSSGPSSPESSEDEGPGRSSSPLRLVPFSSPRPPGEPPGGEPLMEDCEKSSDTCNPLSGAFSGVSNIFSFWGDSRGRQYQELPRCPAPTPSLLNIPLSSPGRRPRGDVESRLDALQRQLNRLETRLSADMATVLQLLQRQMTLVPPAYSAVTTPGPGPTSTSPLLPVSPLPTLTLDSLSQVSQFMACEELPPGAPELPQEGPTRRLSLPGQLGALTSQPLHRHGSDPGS

Compound	hERG current change (%, negative = inhibition) at 10uM [%]
O=C(NCc1c[nH]c2ccccc12)c1ccccc1	1.64
COc1ccc(OC)c2sc(N3CCc4ccccc4C3)nc12	16.4
Cc1ccc(C(=O)NCCCN2CCOCC2)c(C)c1	26.1
CCOC(=O)CSc1nnc(CCCCCN2C(=O)c3cccc4cccc(c34)C2=O)o1	-4.55
CC(CC(C)C(=O)N1CCOCCN(C(=O)C(C)CC(C)C(=O)O)CCOCC1)C(=O)O (stereo not drawn)	13.7
CC(C)OP(=O)(OC(C)C)C(Nc1ccccc1)c1ccccc1C(F)(F)F (stereo not drawn)	-5.45
Cc1cc(F)ccc1N1CCC(N2CCN(C)C(CCO)C2)CC1 (stereo not drawn)	22.1
CCN(C(=O)CN1C(=O)/C(=C/c2ccc(F)cc2)SC1=S)C1CCS(=O)(=O)C1 (stereo not drawn)	-16.2
COc1ccc(OC)c(C2C3=C(N=c4s/c(=C\c5cccc(O)c5)c(=O)n42)c2ccccc2CC3)c1 (stereo not drawn)	-0.325
CCOC(=O)c1nnn(-c2nonc2N)c1CN1CCCC1	11.4
O=C(c1cccc(N2C(=O)C3C4C=CC(C4)C3C2=O)c1)N1CCN(c2ccccc2)CC1 (stereo not drawn)	-1.68
CC12CCC(C(=O)NCc3ccc4c(c3)OCO4)(OC1=O)C2(C)C (stereo not drawn)	6.22
O=C(NNc1c2ccccc2nc2ccccc12)c1cc2ccccc2cc1O	17.2
CCC(NC(=O)c1cc(COc2ccc(OC)cc2Cl)on1)c1ccncc1 (stereo not drawn)	-21
Cc1ccccc1Nc1nc(=O)c2cc([N+](=O)[O-])ccc2s1	-6.28
O=c1[nH]nc(SCc2ccccc2Cl)n1-c1ccc2c(c1)OCCO2	-0.696
CCOc1ccccc1NC(=O)C(=O)CC(=O)c1cccc(OC)c1	15.3
CS(=O)(=O)c1ccccc1C(=O)NC1CCCc2ccccc21 (stereo not drawn)	66.1
CCN(C(=O)CSc1ccc2c(c1)OCCO2)C1CCS(=O)(=O)C1 (stereo not drawn)	9.65
Cc1nc2ccc(NC(=O)c3ccc(Cl)s3)cc2s1	10.6
Cc1cc(/C=C2\C(=O)NC(=O)N(c3ccc(F)cc3)C2=O)c(C)n1-c1cccc(C(=O)O)c1	10.6
Cc1nc(NC(=O)COC(=O)C(NC(=O)c2ccco2)C(C)C)c(Cl)cc1Cl (stereo not drawn)	-8.14
Cc1cc(NS(=O)(=O)c2ccc(NC(=O)CSc3nnc(-c4ccco4)n3Cc3ccco3)cc2)nc(C)n1	15.2
Cc1n[nH]c(C)c1CCC(=O)N/N=C/c1c(C)[nH]c2ccccc12	16.4
COC(=O)C1=C(c2ccc(S(C)(=O)=O)cc2)C[C@@H]2CC[C@H]1N2C(=O)NCc1ccc(C(F)(F)F)cc1	-59.3
COc1ccc(O)c(-c2cn[nH]c2-c2cccs2)c1	7.6
CCOC(=O)c1nn(-c2ccccc2)c(=O)cc1OCC(=O)Nc1cc(C)ccc1OC	-44

Compound	hERG current change (%, negative = inhibition) at 10uM [%]
COC(=O)CSc1nc(-c2ccccc2)c2c(c1C#N)CCCC2	2.26
O=C(NCc1ccco1)c1ccc(F)c(S(=O)(=O)N2CCCCC2)c1	-11.3
Cn1nc(OC(=O)Nc2ccc(Cl)cc2)cc1C(F)(F)F	4.9
Cc1cccc(N2CCN(CCc3ccccc3)CC2)c1C	-75.1
COc1ccc(N2CCN(Cc3nc4c(c(=O)n(C)c(=O)n4C)n3CCc3ccccc3)CC2)cc1	13.5
CCOC(=O)c1cnc2ccc(OC)cc2c1NCc1ccccc1	-65.8
CN(C(=O)COC(=O)CSc1ccc([N+](=O)[O-])cc1)c1ccccc1	-27.8
Cc1ccccc1OCC(=O)N(Cc1ccco1)c1c(N)n(Cc2ccccc2)c(=O)[nH]c1=O	16.3
N#Cc1c(-c2ccc(F)cc2)nc(-c2ccccc2)[nH]c1=O	18.2
COc1cccc(C2=NOC(C(=O)NCc3ccco3)C2)c1 (stereo not drawn)	-5.82
CCN(CC)S(=O)(=O)c1ccc(=O)[nH]c1	52.8
CC(CCc1ccccc1)NCc1ccncc1 (stereo not drawn)	-8.72
CCC(C(=O)Nc1nccs1)(C(F)(F)F)C(F)(F)F	3.58
CC(=O)c1ccc(OCc2cc(C(=O)N(C)Cc3cc(C)no3)no2)cc1	-1.89
CC(C)Nc1ncnc2c1cnn2-c1ccc(Cl)cc1	-3.44
Cc1ccc(S(=O)(=O)NCC(c2cccnc2)N2CCOCC2)cc1 (stereo not drawn)	5.12
CC1CCCC(C)N1C(=S)SCC(=O)O (stereo not drawn)	0.127
O=C(O)CN1C(=O)CSc2ccccc21	-30.6
CC(=O)OC[C@H]1O[C@@H](O/N=C/C[C@@H]2C=C[C@H](OC(C)=O)[C@@H](COC(C)=O)O2)[C@H](OC(C)=O)[C@@H](OC(C)=O)[C@@H]1OC(C)=O	2.63
CCC1CN(C(=O)N2CCC(C(=O)NCc3ccccc3OC)CC2)c2ccccc2O1 (stereo not drawn)	-12.7
Cc1cc(NC(=O)CSc2nnnn2-c2ccccc2C)no1	11.6
O=C(c1cccc(S(=O)(=O)N2CCOCC2)c1)N1CCCCCC1	-8.68
O=C(Cn1c(O)c(/C=C2\C=Nc3ccccc32)sc1=O)N1CCOCC1	20.5
CCOc1ccc(CNC(=O)CS(=O)(=O)Cc2nc(-c3ccc(OC)cc3)oc2C)cc1	-0.888
CC(NS(=O)(=O)c1ccccc1)C(=O)NCc1ccco1 (stereo not drawn)	10.3
CCOc1ccc(-c2nnc(-c3snc(-c4ccc(F)cc4)c3N=CN(C)C)o2)cc1	15.4
O=C1CC(=O)Nc2cc(S(=O)(=O)N3CCN(c4ccc([N+](=O)[O-])cc4)CC3)ccc2N1	-66.8
